From PubChem BioAssay AID488969 (Vanderbilt High Throughput Screening Facility, 2010)
The full ranking holds about 110,000 compounds; the median of “z-score” is about -0.1, and the highest 2% start at about 2. The list shows a part of the results.

molecular target: Metabotropic glutamate receptor 8 (Rattus norvegicus) (UniProt P70579); test: mGluR8 Gi/Go-coupled signaling modulation – cell-based, rat, thallium flux, HTS, primary screen (AID 488969); conditions: HEK293 rat mGluR8, GIRK (G protein-gated inwardly rectifying potassium channel) thallium flux, FluoZin2; at 10 µM; stronger effect = higher value; submaximal glutamate (EC20) added with thallium
Sequence of UniProt P70579 (P70579 whole entry, looked up): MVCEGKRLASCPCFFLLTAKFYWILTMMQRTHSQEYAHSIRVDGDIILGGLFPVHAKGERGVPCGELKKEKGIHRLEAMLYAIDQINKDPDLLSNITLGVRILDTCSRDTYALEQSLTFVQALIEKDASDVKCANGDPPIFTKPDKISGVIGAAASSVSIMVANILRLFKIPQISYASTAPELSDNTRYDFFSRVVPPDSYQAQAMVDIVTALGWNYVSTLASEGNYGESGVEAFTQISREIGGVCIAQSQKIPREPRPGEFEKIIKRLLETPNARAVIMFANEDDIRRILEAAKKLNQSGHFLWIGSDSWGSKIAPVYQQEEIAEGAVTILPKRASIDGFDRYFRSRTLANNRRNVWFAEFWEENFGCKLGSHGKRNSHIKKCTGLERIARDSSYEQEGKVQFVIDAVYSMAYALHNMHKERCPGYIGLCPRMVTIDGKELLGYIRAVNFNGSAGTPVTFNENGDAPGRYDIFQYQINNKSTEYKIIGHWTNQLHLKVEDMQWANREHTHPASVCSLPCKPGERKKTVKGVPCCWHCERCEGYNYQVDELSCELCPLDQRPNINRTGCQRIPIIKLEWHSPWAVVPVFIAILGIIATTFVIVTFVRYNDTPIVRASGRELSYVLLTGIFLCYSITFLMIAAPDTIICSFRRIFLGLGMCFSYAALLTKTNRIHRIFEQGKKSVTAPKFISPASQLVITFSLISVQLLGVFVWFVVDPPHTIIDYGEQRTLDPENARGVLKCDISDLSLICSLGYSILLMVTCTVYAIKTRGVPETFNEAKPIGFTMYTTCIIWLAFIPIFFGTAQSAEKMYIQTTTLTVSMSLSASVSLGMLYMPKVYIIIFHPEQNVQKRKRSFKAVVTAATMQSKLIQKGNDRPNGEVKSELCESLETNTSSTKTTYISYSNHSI

Row | Compound | z-score
1 | O=C(c1cccc([N+](=O)[O-])c1)n1nc(-c2ccccc2)nc1NCc1ccccc1 | -0.377
2 | C=CCOc1ccc2c(c1)c(S(=O)(=O)c1ccc(C)cc1)cn2COC | -0.417
3 | O=C(CSCc1ccco1)c1ccc(Cl)s1 | -0.544
4 | CCCOC(=O)c1ccc(NC(=O)COC)cc1 | -0.449
5 | CCOCC(=O)Nc1ccc2c(c1)OCCO2 | 0.168
6 | COc1ccccc1-n1cnc2cc(C(=O)NC3CCCC3)ccc21 | -0.0776
7 | CCCCN1CNC(=S)N(Cc2ccccc2)C1 | -0.0503
8 | CC1CC(C)CN(c2nc(NCc3ccco3)nc(N)c2[N+](=O)[O-])C1 (configuration not stated) | 0.544
9 | Cc1ccc(C2CC(c3ccco3)n3nc(N)nc3N2)cc1 (configuration not stated) | 0.519
10 | CCc1ccc(Nc2nc(N)nc(CSc3nnnn3-c3ccccc3)n2)cc1 | 0.133
11 | Cc1cccc(NC(=O)c2cc(S(=O)(=O)c3ccccc3)ccc2Cl)c1 | 0.286
12 | CCOC(=O)C1=C(C)NC(=O)NC1c1ccc(N(CC)CC)cc1 (configuration not stated) | -0.0787
13 | Cc1ccc(-c2cc(C(=O)N/N=C/c3ccco3)n[nH]2)s1 | -0.308
14 | CCCCOC(=O)Nc1ccc(C)c(Cl)c1 | -0.315
15 | CC(C)CC1NC(=S)N(C2CCCCC2)C1=O (configuration not stated) | -0.106
16 | COc1cnc(-c2ccccn2)nc1Sc1ccc(Cl)cc1 | -0.328
17 | O=C(NCC(c1cccs1)N1CCOCC1)c1ccco1 (configuration not stated) | 0.17
18 | COC(=O)C1=CN(C(C)C)C=C(C(=O)OC)C1c1cc(Br)c(OC)c(OC)c1 | 0.22
19 | N/C(=N\OC(=O)N1CCOCC1)c1ccccc1 | -0.264

Row | Compound | z-score
20 | COc1ccc(Br)cc1/C=N/n1c(C)nnc1C | -0.26
21 | COc1ccc(C(=S)N2CCN(C)CC2)cc1 | 0.00843
22 | CCC(=O)Nc1ccc(C(=O)Nc2cccc(OC)c2)cc1 | -0.144
23 | Cc1cc(NC(=O)CSc2nnc(Cc3ccccc3)n2C)no1 | 0.289
24 | O=C1CCCN1CCCNCC(=O)N1c2ccccc2Sc2ccccc21 | -0.364
25 | COCCCN1C(=O)c2ccc(C(=O)Nc3ccccc3OC)cc2C1=O | -0.422
26 | CN(C1CCCCC1)S(=O)(=O)c1ccc(C(=O)N2CCN(c3nc4ccccc4s3)CC2)cc1 | 0.121
27 | COc1cccc(OCc2cc(/C=N/NC(=O)c3ccn[nH]3)ccc2OC)c1 | -0.544
28 | OCc1ccccc1OCCOc1ccc(Cl)c2cccnc12 | -0.438
29 | COc1cc(C)c(Cl)cc1S(=O)(=O)n1cnc2ccccc21 | 1.19
30 | CCN1/C(=C2\C(=O)N(C)C(=S)N2C)C=Cc2ccccc21 | -0.543
31 | CSC(=CC(=O)c1ccccc1)SC | -0.142
32 | CC(c1ccccc1)C1CC(=O)N(Cc2ccco2)C1=O (configuration not stated) | 0.442
33 | Cc1cc(NCCC(C)C)n2nc(C)c(-c3ccccc3)c2n1 | -0.347
34 | OC(CNCCc1ccc(Cl)cc1)COCc1ccco1 (configuration not stated) | 0.739
35 | COc1ccc(C(=O)C[n+]2ccc(-c3nnc4n3CCC4)cc2)cc1 | 0.00267
36 | O=C(c1ccccn1)N(CC1CCCO1)C1(C(=O)NC2CCCCC2)CCCCC1 (configuration not stated) | -0.0644
37 | O=C(CN1C(=O)CSC1=O)Nc1ccccc1F | 0.225
38 | COc1ccc(C)cc1NC(=O)C1CC(=O)OC12CCCCC2 (configuration not stated) | -0.372

Row | Compound | z-score
39 | CCOC(=O)C1=C(c2ccccc2)NC(SCC(=O)Nc2ccc(C)cc2)=C(C#N)C1c1ccco1 (configuration not stated) | -0.38
40 | CCOC(=O)c1cccc(NC(=O)CSc2nnc(-c3ccncc3)n2CCCOC)c1 | -2.15
41 | O/N=C/c1cc(Br)ccc1OCc1ccc(F)cc1 | -0.142
42 | CCn1c(SCC(=O)Nc2ccc3c(c2)OCO3)nc2c1c(=O)n(C)c(=O)n2C | 0.199
43 | CC(=O)Nc1nc(CC(C)C)cc(-c2ccco2)c1C#N | 0.491
44 | C/C(=N/Oc1nc(C)cc(C)n1)c1ccc(Br)cc1 | -0.206
45 | CSCC[C@H](NC(=O)NCc1ccccc1F)C(=O)O | 0.0918
46 | CCC(C(=O)Nc1ccc(OC)c(Cl)c1)c1ccccc1 (configuration not stated) | -0.116
47 | CCOC(=O)C1CCN(c2c(Nc3ccc4c(c3)OCCO4)c(=O)c2=O)CC1 | -0.277
48 | Cc1ccc(NC(=O)c2c(-c3ccccc3)noc2C)nc1 | -0.306
49 | O=C(CSc1nnc(CNC(=O)c2cccs2)o1)c1ccc(Cl)cc1 | 0.286
50 | CCC(=O)Nc1ccccc1C(=O)OCC(=O)c1cccc2ccccc12 | 0.536
51 | CNC(=S)NNC(=O)CCn1nc(C)c(Br)c1C | 0.779
52 | O=c1c2ccccc2nc(CSc2nnnn2-c2ccccc2)n1-c1cccc(C(F)(F)F)c1 | -0.131
53 | COc1ccc(CCNC(=O)c2nnc(Cc3ccc(Cl)cc3)o2)cc1OC | -0.408
54 | Brc1cccc(-c2cnc3n2CCCCC3)c1 | -0.682
55 | Cc1ccc2c(c1)N=C(c1ccc(Cl)cc1)CO2 | -0.217
56 | COC(=O)c1c(NC(=O)C2CC=CCC2C(=O)O)sc(C(N)=O)c1C (configuration not stated) | -0.534
57 | O=C(CCN1CCCCCC1)Nc1cccc(F)c1 | 1.18
